From PubChem BioAssay AID1508623 (National Center for Advancing Translational Sciences (NCATS), 2021)
Screen size: about 48,000 compounds; about 450 (0.94%) were called active. The shares of active, inactive and inconclusive entries below differ from those in the screen. Calls follow the shape of the dose curve; as a rule, active = well fitted inhibition curve with a large enough effect; inconclusive = small, poorly fitted or top-dose-only effect; inactive = no such curve, though single readings can be large or run the other way. Where the call is inconclusive, the potency comes from a doubtful curve fit.
Potency is read from the fitted curve at half-maximal effect; tags tell the direction and shape of the fitted curve.

Assay: Primary qHTS for Identification of Small Molecule Inhibitors of Huntingtin Promoter Activity; also: nearly all actives have a fitted effect of over 50% in size
Details: HEK293 HTT promoter firefly luciferase reporter (activity 0% = vehicle and -100% = no light), 24 h; activity change, negative = inhibition: at 57.5 µM (top of the series)
Method in brief: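 HEK293 cells carrying firefly luciferase reporters were seeded at 2,500 per well in Opti-MEM and cultured for 24 h. They were then treated with compounds at up to 57.5 uM final for 24 h at 37 degrees C before Dual-Glo luminescence readout.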
With `COc1cc(C(=O)Nc2ccc3nc(SCc4ccc(C)cc4)sc3c2)cc(OC)c1OC` the Potency was inconclusive: 31.6 µM [inhibitor, single point]. In the case of `Cc1ccc(Cl)cc1-n1ncc2c(NC3CCCCCC3)ncnc21`, the Potency is reported as inconclusive: 14.1 µM [inhibitor, partial curve, poor fit]. For `O=C(NCc1ccc(Cl)cc1)c1cnc(N2CCCCC2)c2ccccc12`, the Potency was inconclusive: 20 µM [inhibitor, single point]. In the case of `Cc1cccc(N2CCN(CCNC(=O)C3COc4ccccc4C3)CC2)c1C` (configuration not stated), the Potency is reported as inconclusive: 22.4 µM [inhibitor, partial curve]. In the case of `O=C(O)c1cc(-n2c(/C=C\c3ccc(F)cc3)nc3ccccc3c2=O)ccc1Cl`, the Potency is reported as inconclusive: 39.8 µM [inhibitor, single point]. For `Cc1ccc(C(=O)Nc2cccc(C(F)(F)F)c2)cc1-c1ccc2nc(NCCN3CCOCC3)ncc2c1`, the Potency was inconclusive: 6.11 µM [inhibitor, full curve]. In the case of `Cc1c(S(=O)(=O)c2cccc(Cl)c2)nnn1-c1cccc(C(F)(F)F)c1`, the Potency is reported as inconclusive: 39.8 µM [inhibitor, single point]. In the case of `CCCCN(C)CCCNC(=O)C1CCN(c2nc3ccc(CC)cc3s2)CC1`, the “activity change, negative = inhibition” value is reported as inactive: 32.6%. In the case of `COc1cc(OC)c(OC)cc1/C=C/c1nc2cc3ccccc3cc2c(=O)n1-c1ccc(Cl)cc1`, the Potency is reported as inconclusive: 39.8 µM [inhibitor, single point]. With `CCOC(=O)CC(NS(=O)(=O)c1ccc2[nH]c3c(c2c1)CCCC3)c1ccccc1Cl` (configuration not stated) the Potency was inconclusive: 28.2 µM [inhibitor, single point]. With `CC(C)OCCCNC(=O)c1ccc2c(c1)N(Cc1c(F)cccc1Cl)C(=O)c1ccccc1S2` the Potency was inconclusive: 28.2 µM [inhibitor, partial curve, poor fit]. For `Cc1ccc(Oc2c(C(F)(F)F)oc3c(CN4CCCCC4C)c(O)ccc3c2=O)cc1` (configuration not stated), the Potency was inconclusive: 31.6 µM [inhibitor, partial curve, poor fit]. For `COc1ccc(C(=O)NCC(c2cccnc2)N2CCc3ccccc32)cc1` (configuration not stated), the Potency was inconclusive: 22.4 µM [inhibitor, partial curve]. For `CCC(C(=O)Nc1cc(Cl)ccc1OC)n1nc(-c2ccccc2)ccc1=O` (configuration not stated), the Potency was inconclusive: 39.8 µM [inhibitor, single point]. For `CN(C)CCN(C)C(=O)c1ccc(NC(=O)Nc2ccc(-c3nc(N4CCOCC4)c4ccn(CC(F)(F)F)c4n3)cc2)cc1`, the Potency was inconclusive: 0.485 µM [inhibitor, full curve]. In the case of `COc1ccccc1CNC(=O)C1CCCN(c2nc3ccccc3n3cccc23)C1` (configuration not stated), the Potency is reported as inconclusive: 22.4 µM [inhibitor, single point]. For `Cc1noc(/C=C/c2cccs2)c1S(=O)(=O)N1CCC(C(=O)Nc2ccc(F)c(Cl)c2)CC1`, the Potency was inconclusive: 22.4 µM [inhibitor, single point]. In the case of `Cc1cccc(N2CCN(c3ncnc4c3nc3n4CCCCC3)CC2)c1C`, the Potency is reported as inconclusive: 35.5 µM [inhibitor, single point]. In the case of `CCOc1ccc(NC(=O)c2ccc(NC(=O)N3CCSc4ncccc43)cc2)cc1`, the Potency is reported as inconclusive: 14.1 µM [inhibitor, partial curve]. In the case of `CC1CCN(S(=O)(=O)c2cn(CC(=O)Nc3cccc(C(F)(F)F)c3)c(=O)c3ccccc23)CC1`, the Potency is reported as inconclusive: 22.4 µM [inhibitor, single point]. With `O=C(NC1CCCCC1)c1ccc(Cn2c(SCc3ccccc3F)nc3cccnc32)cc1` the Potency was inconclusive: 39.8 µM [inhibitor, single point]. With `CCn1c(C(=O)NCCc2ccc(OC)c(OC)c2)cc2sc(Cl)cc21` the Potency was inconclusive: 25.1 µM [inhibitor, single point]. With `COc1ccc(-c2[nH]c3ccccc3c2SCCNC(=O)c2cc(OC)c(OC)c(OC)c2)cc1` the Potency was inconclusive: 31.6 µM [inhibitor, partial curve]. For `COc1ccc(SCc2cc(=O)c3cc(Cl)ccc3[nH]2)cc1`, the Potency was inconclusive: 20 µM [inhibitor, single point]. For `Cc1cccc(C)c1OCCn1c(C2CC(=O)N(c3cccc(Cl)c3)C2)nc2ccccc21` (configuration not stated), the Potency was inconclusive: 39.8 µM [inhibitor, single point]. For `CCc1ccccc1N1C(=O)N(Cc2ccc(C#N)cc2)c2ccccc2S1(=O)=O`, the Potency was inconclusive: 39.8 µM [inhibitor, single point]. For `CC(C)Sc1oc(-c2cccs2)nc1S(=O)(=O)c1ccc(Cl)cc1`, the Potency was inconclusive: 35.5 µM [inhibitor, partial curve, poor fit]. For `CCOc1ccc(S(=O)(=O)NCCc2sc3nc(-c4ccc(F)cc4)nn3c2C)cc1`, the Potency was inconclusive: 28.2 µM [inhibitor, partial curve, poor fit]. For `CCn1c2ccccc2c2cc(CN3CCN(Cc4ccccc4F)CC3)ccc21`, the Potency was inconclusive: 3.16 µM [inhibitor, single point]. In the case of `CCOc1ccccc1NC(=O)C(=O)NCCc1sc(-c2cccc(F)c2)nc1C`, the “activity change, negative = inhibition” value is reported as inactive: -12.3%. With `COc1ccc(-c2nnc(SCC(=O)NCc3ccc(C)cc3)nc2-c2ccc(OC)c(OC)c2)cc1OC` the Potency was inconclusive: 39.8 µM [inhibitor, single point]. With `O=C(CSc1nc(-c2ccc(F)cc2)[nH]c1-c1ccccc1)NCC1CCCO1` (configuration not stated) the Potency was inconclusive: 31.6 µM [inhibitor, single point]. In the case of `CCc1ccc(C(=O)c2cn(CC(=O)Nc3ccc(OC)c(OC)c3)c3ccc(C)cc3c2=O)cc1`, the “activity change, negative = inhibition” value is reported as inactive: -19.8%. In the case of `O=C(CCN1N=C(c2ccccc2)CCC1=O)NCCc1ccc(Cl)cc1`, the Potency is reported as inconclusive: 39.8 µM [inhibitor, single point]. For `COCCN1C(=O)c2[nH]nc(-c3ccccc3O)c2C1c1ccc(Cl)c(Cl)c1` (configuration not stated), the Potency was inconclusive: 39.8 µM [inhibitor, single point]. With `Cc1ccc(CN(Cc2ccco2)C(=O)COc2cc(C)c(Cl)c(C)c2)cc1` the Potency was inconclusive: 31.6 µM [inhibitor, single point]. For `COc1ccc(S(=O)(=O)N2CCC(Oc3ccc(-n4cnnn4)cc3)CC2)cc1OC`, the Potency was inconclusive: 31.6 µM [inhibitor, single point]. In the case of `CCc1ccc(NC(=O)CN(c2ccc(OC)cc2)S(=O)(=O)c2c(C)[nH]c(=O)[nH]c2=O)cc1`, the activity change, negative = inhibition is reported as inactive: -0.0284% [at 11.5 µM]. With `CN1C(=O)c2ccccc2Sc2ccc(NC(=O)COc3ccc(F)cc3)cc21` the Potency was inconclusive: 14.1 µM [inhibitor, single point]. For `Cc1ccccc1C(=O)Nc1nnc(S(=O)(=O)N2c3ccccc3CC2C)s1` (configuration not stated), the Potency was inconclusive: 31.6 µM [inhibitor, single point]. In the case of `O=C(NCc1ccco1)c1ccc2c(c1)N(Cc1cccc(Cl)c1)C(=O)c1ccccc1S2(=O)=O`, the Potency is reported as inconclusive: 22.4 µM [inhibitor, single point]. With `Cc1nn(-c2ccccc2)c2nc(C3CC3)cc(C(=O)Nc3ccccc3F)c12` the Potency was inconclusive: 22.4 µM [inhibitor, partial curve, poor fit]. In the case of `Cc1c(NS(=O)(=O)c2ccccc2)cc(C(C)C)c(O)c1S(=O)(=O)c1ccc(Cl)cc1`, the Potency is reported as inconclusive: 28.2 µM [inhibitor, single point]. With `CCc1ccc(S(=O)(=O)NCCc2csc3nc(-c4ccccc4)nn23)s1` the Potency was inconclusive: 35.5 µM [inhibitor, partial curve, poor fit]. For `CC(C)(C)c1ccc(-c2nc3cc(NC(=O)c4cccc(Br)c4)ccc3o2)cc1`, the “activity change, negative = inhibition” value was inactive: -7.19%. With `O=C(NCCc1csc2nc(-c3ccc(F)cc3)nn12)c1cccc(C(F)(F)F)c1` the Potency was inconclusive: 39.8 µM [inhibitor, single point]. In the case of `Cc1oc(-c2ccccc2)nc1CCC(=O)c1ccc(CC2SC(=O)NC2=O)cc1` (configuration not stated), the “activity change, negative = inhibition” value is reported as inactive: -13.3%. In the case of `COc1ccc(Cn2c(SCc3ccc(C(=O)NC4CCCC4)cc3)nc3cccnc32)cc1`, the Potency is reported as inconclusive: 31.6 µM [inhibitor, single point]. With `CCOc1ccccc1CNS(=O)(=O)c1ccc(-c2coc(C)n2)cc1` the Potency was inconclusive: 35.5 µM [inhibitor, single point]. For `CCn1cc2nc(SCC(=O)Nc3ccc(C)cc3C)n(Cc3ccc(C)cc3)c(=O)c2n1`, the Potency was inconclusive: 14.1 µM [inhibitor, partial curve]. In the case of `Cc1ccccc1NC(=O)CCn1cnc2onc(-c3ccc(F)cc3)c2c1=O`, the Potency is reported as inconclusive: 28.2 µM [inhibitor, single point]. In the case of `Cc1ccc(NS(=O)(=O)c2c(C(=O)N3CCC(C)CC3)c(C)n(C)c2C)cc1Cl`, the Potency is reported as inconclusive: 25.1 µM [inhibitor, partial curve, poor fit]. In the case of `Cc1ccc(CN2CCSc3ccc(C(=O)N4CCN(c5cc(C)ccc5C)CC4)cc32)cc1`, the Potency is reported as inconclusive: 20 µM [inhibitor, single point]. With `CCOC(=O)c1c(S(=O)(=O)N2CCCC(C(=O)N3CCN(c4cccc(C)c4C)CC3)C2)c(C)n(C)c1C` (configuration not stated) the Potency was inconclusive: 31.6 µM [inhibitor, single point]. For `Cc1cccc(NC(=O)c2nc(S(C)(=O)=O)ncc2Cl)c1`, the Potency was inconclusive: 39.8 µM [inhibitor, single point]. In the case of `CCc1ccc(NC(=O)C2CCN(S(=O)(=O)c3ccc4[nH]c5c(c4c3)CCCCC5)CC2)cc1`, the Potency is reported as inconclusive: 11.2 µM [inhibitor, partial curve, poor fit]. For `CCOC(=O)C1CCN(C(=O)C2CCN(C3=NS(=O)(=O)C(c4ccc(C)cc4)=C3CC)CC2)CC1`, the Potency was inconclusive: 22.4 µM [inhibitor, partial curve, poor fit].
